# From PubChem BioAssay AID1460 (National Center for Advancing Translational Sciences (NCATS), 2008)
# The whole screen tested about 270,000 compounds, of which about 5,800 (2.1%) were called active. The shares of active, inactive and inconclusive entries below differ from those in the screen. Calls follow the shape of the dose curve; as a rule, active = well fitted inhibition curve with a large enough effect; inconclusive = small, poorly fitted or top-dose-only effect; inactive = flat fitted curve, though single readings scatter. Potencies of inconclusive entries are doubtful fits and often do not repeat.
# Target: Microtubule-associated protein tau (Homo sapiens) (UniProt P10636)
# Experiment: qHTS for Inhibitors of Tau Fibril Formation, Thioflavin T Binding; also: nearly all actives have a fitted effect of over 55% in size
# Conditions: recombinant tau K18 P301L, heparin-induced fibrillization, ThT fluorescence; series mostly up to 57.4 µM; activity, negative = inhibition: at the top concentration
# Outline: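 ThT emission at 510 nm, taken 1 hr after adding 30 uM dye, quantifies aggregates formed when 20 uM heparin acts on human tau K18 P301L for 6 hr at 37 C.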
# % is scaled to controls: 0 for no effect and ±100 for the full control effect; potency is read from the fitted curve at half-maximal effect; tags tell the direction and shape of the fitted curve.
# Sequence of UniProt P10636 (P10636 whole entry, looked up): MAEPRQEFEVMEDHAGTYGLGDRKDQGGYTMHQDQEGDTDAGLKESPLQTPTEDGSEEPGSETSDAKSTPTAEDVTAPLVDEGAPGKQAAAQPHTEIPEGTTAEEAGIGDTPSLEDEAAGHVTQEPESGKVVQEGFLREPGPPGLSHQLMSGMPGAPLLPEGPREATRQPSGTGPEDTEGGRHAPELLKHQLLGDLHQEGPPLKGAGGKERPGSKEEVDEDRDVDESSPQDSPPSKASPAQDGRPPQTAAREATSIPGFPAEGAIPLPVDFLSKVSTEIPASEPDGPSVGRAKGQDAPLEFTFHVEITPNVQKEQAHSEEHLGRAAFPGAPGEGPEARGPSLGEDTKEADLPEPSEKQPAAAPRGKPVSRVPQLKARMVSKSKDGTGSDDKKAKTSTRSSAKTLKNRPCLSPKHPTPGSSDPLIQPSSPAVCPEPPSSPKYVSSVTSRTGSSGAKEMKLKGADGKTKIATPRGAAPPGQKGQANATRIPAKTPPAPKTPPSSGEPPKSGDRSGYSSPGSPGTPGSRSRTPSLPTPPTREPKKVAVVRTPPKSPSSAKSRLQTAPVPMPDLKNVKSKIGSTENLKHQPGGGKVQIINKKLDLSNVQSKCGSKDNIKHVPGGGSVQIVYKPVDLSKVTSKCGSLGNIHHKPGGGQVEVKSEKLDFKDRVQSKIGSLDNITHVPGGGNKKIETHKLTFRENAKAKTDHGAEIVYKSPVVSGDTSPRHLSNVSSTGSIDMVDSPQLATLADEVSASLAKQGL
Structure (SMILES),Potency,"activity, negative = inhibition"
COc1ccc(N2C(=O)C3C(C2=O)C3(c2ccccc2)c2ccccc2)cc1 (centres undefined),"inconclusive: 39.8 µM [inhibitor, single point]",–
CN1/C(=C\C(=O)COC(=O)c2ccco2)C(C)(C)c2ccccc21,–,inactive: -9.1%
CC(C)C(=O)N1CCN(c2ccc(NC(=O)c3ccc([N+](=O)[O-])o3)cc2Cl)CC1,"inconclusive: 2.51 µM [inhibitor, partial curve]",–
CNC(=S)NCCc1ccc(OC)cc1,–,inactive: 4.88%
O=C(NCC1CCCC(CNC(=O)N2CCc3ccccc32)C1)N1CCc2ccccc21 (centres undefined),"inconclusive: 15.8 µM [inhibitor, partial curve]",–
O=C(Cn1cnc2ccccc21)N/N=C/c1cccnc1,–,inactive: -0.563%
O=C(OC1CCc2ccccc2C1=O)c1ccccc1O (centres undefined),active: 25.1 µM,–
CC(C)CNS(=O)(=O)c1ccc(CC(C)C)cc1,–,inactive: -4.78%
Cc1ccc(N2C(=O)C3C4C=CC(CNC(=S)N5CCN(c6ccccn6)CC5)(O4)C3C2=O)cc1 (centres undefined),"inconclusive: 20 µM [inhibitor, partial curve, poor fit]",–
OC[C@@H]1[C@@H](c2ccc(Cl)cc2)C(c2cccc(Cl)c2)=NN1c1ccccc1,"inconclusive: 39.8 µM [inhibitor, partial curve]",–
CCCOc1ccc(/C=C/c2[nH]c(=O)[nH]c(=O)c2[N+](=O)[O-])cc1OCC,"inconclusive: 5.01 µM [inhibitor, partial curve]",–
CCc1ccccc1N(C)C(=O)c1cn(CC(C)C)c(=O)c2cc(OC)c(OC)cc12,–,inactive: -13.4%
CC1(C)CC(=O)C2=C(C1)NC(SCC(N)=O)=C(C#N)C21CCCCC1,–,inactive: -8.94%
CC(=O)NNC(=O)N1Cc2ccccc2Oc2ccc(Cl)cc21,"inconclusive: 0.158 µM [inhibitor, full curve, poor fit]",–
O=C(N/N=C\c1ccc(COc2ccc([N+](=O)[O-])cc2)o1)c1ccc(Cl)cc1,"inconclusive: 5.01 µM [inhibitor, partial curve]",–
COc1ccc(/C=N/Nc2nnc(-c3ncc[nH]3)c3ccccc23)cc1,"inconclusive: 2 µM [inhibitor, full curve]",–
CC(=O)O/N=C/c1c(NCc2ccccc2)nc2c(C)cccn2c1=O,"inconclusive: 44.7 µM [inhibitor, partial curve, poor fit]",–
COc1ccc(/C=C(\C#N)c2nc(-c3cc(Cl)ccc3OC)cs2)cc1,"inconclusive: 2.82 µM [inhibitor, full curve]",–
O=C1C(c2ccncc2)N(CCC2=CCCCC2)C(=O)CN1C1CCCCC1 (centres undefined),active: 7.94 µM,–
Cc1ccccc1-c1nc(-c2ccc(NC(=O)c3ccc(Br)o3)cc2)no1,"inconclusive: 2.82 µM [inhibitor, full curve]",–
COc1ccc(Br)cc1CNCCSc1nnnn1C,–,inactive: -0.97%
O=[N+]([O-])c1ccc(N=Cc2sc3ccccc3c2O)cc1,active: 0.708 µM,–

Structure (SMILES),Potency,"activity, negative = inhibition"
Cc1ccc(/C=N/NC(=O)c2c[nH]c3ccccc23)s1,"inconclusive: 17.8 µM [inhibitor, partial curve, poor fit]",–
Cc1cccc(OCCCC(=O)Nc2sc3c(c2C(N)=O)CCC(C)C3)c1 (centres undefined),"inconclusive: 8.91 µM [inhibitor, partial curve, poor fit]",–
Cn1c2ccccc2c2cc(/C=C(\NC(=O)c3ccccc3)C(=O)O)ccc21,"inconclusive: 22.4 µM [inhibitor, partial curve, poor fit]",–
O=C(CSc1nc2nccnc2c(=O)n1CCc1c[nH]c2ccccc12)Nc1ccccc1F,"inconclusive: 14.1 µM [inhibitor, partial curve]",–
O=C(CSc1nc2ccccc2n1Cc1ccccc1Cl)N/N=C/c1ccccc1C(=O)O,"inconclusive: 12.6 µM [inhibitor, partial curve, poor fit]",–
COc1cc(NC(=O)c2ccc(C(C)(C)C)cc2)c(OC)cc1NC(=O)CN1CCCCC1,"inconclusive: 20 µM [inhibitor, single point]",–
COc1ccccc1C(=O)NCCC(=O)Nc1cccnc1,–,inactive: -3.96%
COc1cc(/C=C/c2noc(-c3ccccc3O)n2)ccc1OC(C)=O,"inconclusive: 0.282 µM [inhibitor, full curve]",–
Cc1cc(C)nc(N/N=C/c2cccc3ccccc23)n1,"inconclusive: 17.8 µM [inhibitor, single point]",–
COc1ccc(N2CCN(C(=O)c3cc4c(-c5ccccc5F)nn(C)c4s3)CC2)cc1,"inconclusive: 1 µM [inhibitor, full curve, poor fit]",–
COc1ccc(OC)c(NC2=C(c3ccccc3)C(=O)c3ccccc32)c1,active: 14.1 µM,–
COc1ccc(/C=N/Nc2nnc(-c3ccccc3)c(=O)[nH]2)cc1,"inconclusive: 4.47 µM [inhibitor, full curve]",–
COC(=O)c1ccc(Cl)cc1NC(=O)N1CC=C(c2c[nH]c3ccccc23)CC1,"inconclusive: 15.8 µM [inhibitor, partial curve]",–
CCOC(=O)N1CCN(C(=O)CSCC(=O)Nc2nc(-c3cccs3)cs2)CC1,"inconclusive: 8.91 µM [inhibitor, partial curve]",–
CN1C[C@@H]2C[C@@H](c3cccn3-c3nccs3)N3CCC[C@@]23C1=O,–,inactive: -6.53%
Cc1cc(C(=O)NCc2ccco2)no1,"inconclusive: 44.7 µM [inhibitor, partial curve]",–
Cc1ccc(/C=N/Nc2ccc(Cl)c(C(=O)O)c2)s1,"inconclusive: 12.6 µM [inhibitor, partial curve]",–
COc1cc(N2C(=O)C=CC2=O)c(OC)cc1Cl,"inconclusive: 39.8 µM [activator, single point]",–
O=[N+]([O-])c1ccc(C(O)C23CN4CN(CN(C4)C2)C3)cc1 (centres undefined),–,inactive: 0.241%
COc1ccc2[nH]c(CN3CCN(CC(C)C)C(CCO)C3)c(C)c2c1 (centres undefined),"inconclusive: 28.2 µM [inhibitor, partial curve]",–
Cc1cc(N2CCN(C(=O)OC(C)(C)C)CC2)n2ncnc2n1,–,inactive: -7.74%
COc1ccc(OCC(=O)Nc2cc(-c3nn(C)c(=O)c4ccccc34)ccc2N2CCOCC2)cc1,"inconclusive: 28.2 µM [inhibitor, single point]",–
